Measured values: patent US8536307B2, “Anticalins” (Pieris AG, priority 1997, dated 2013)

Molecular target: biotinylated synthetic hepatitis C-peptide epitope, peptide fragment no. 59 from the surface protein NS4 of HCV (SEQ ID NO:13) (Hepatitis C virus genotype 1a, UniProt P27958)
Assay: Sandwich-ELISA for detection of hepatitis C peptide epitope
Conditions: periplasmic protein extract, ligand 1 μM, absorption at 405 nm as dA/dt

B1: Bbp: Recombinant bilin-binding protein from Pieris brassicae (modified, encoded on pBBP21/pBBP22), produced as a control (protein)
chain: DVYHDGACPEVKPVDNFDWSQYHGKWWEVAKYPNSVEKYGKCGWAEYTPEGKSVKVSNYHVIHGKEYFIEGTAYPVGDSKIGKIYHSLTYGGVTKENVFNVLSTDNKNYIIGYYCKYDEDKKGHQDFVWVLSRSMVLTGEAKTAVENYLIGSPVVDSQKLVYSDFSEAACKVNNLAEAKVLANRELDKYGVSDYYKNLINNAKTVEGVKALIDEILAALP
modifications: left off: small tags and cut ends
  binding signal in sandwich-ELISA: only low signals were detectable
